Reference: patent US10273244B2, “Substituted hexahydropyrrolo[3,4-b]pyrroles and hexahydrocyclopenta[c]pyrroles as dopamine receptor modulators” (INDIVIOR UK LIMITED, priority 2015, dated 2019)

These compounds were tested against human dopamine type 3 receptor (CHO-hD3 membranes) (Homo sapiens (Human), UniProt P35462). Conditions: not given.
UniProt P35462, sequence (P35462 whole entry): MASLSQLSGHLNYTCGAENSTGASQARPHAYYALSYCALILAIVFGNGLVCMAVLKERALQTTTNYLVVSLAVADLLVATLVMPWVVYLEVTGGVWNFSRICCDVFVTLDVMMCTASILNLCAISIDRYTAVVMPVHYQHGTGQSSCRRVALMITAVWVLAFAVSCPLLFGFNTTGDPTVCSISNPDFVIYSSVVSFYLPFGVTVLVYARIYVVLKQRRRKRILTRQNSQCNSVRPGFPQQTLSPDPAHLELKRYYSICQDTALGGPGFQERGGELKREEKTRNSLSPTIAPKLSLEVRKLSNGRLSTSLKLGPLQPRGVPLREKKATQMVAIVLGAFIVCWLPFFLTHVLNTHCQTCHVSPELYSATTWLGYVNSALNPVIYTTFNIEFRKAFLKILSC

SMILES | D3 pKi
Cn1c(SCCCN2C[C@@H]3CCN(c4ccc(F)cc4)[C@@H]3C2)nnc1-c1ccc(C(N)=O)nc1 [Example 199, 5-[5-({3-[(3aS,6aS or 3aR,6aR)-1-(4-fluorophenyl)-octahydropyrrolo[3,4-b]pyrrol-5-yl]propyl}sulfanyl)-4-methyl-4H-1,2,4-triazol-3-yl]pyridine-2-carboxamide] | 9.29
Cn1c(SCCCN2C[C@@H]3CCN(c4ccc(C(F)(F)F)cc4)[C@@H]3C2)nnc1-c1ccc(C(N)=O)nc1 [Example 196, 5-[5-({3-[(3aS,6aS or 3aR,6aR)-1-[4-(trifluoromethyl)phenyl]-octahydropyrrolo[3,4-b]pyrrol-5-yl]propyl}sulfanyl)-4-methyl-4H-1,2,4-triazol-3-yl]pyridine-2-carboxamide] | 9.23

Same assay, conditions: displacement of 0.3 nM [3H]-Spiperone

SMILES | D3 pKi
CC(C)Oc1ccccc1N1CC[C@H]2CN(CCCSc3nnc(-c4cnccn4)n3C)C[C@H]21.Cl.Cl [Example 118, 2-[5-({3-[(3aS,6aS or 3aR,6aR)-1-[2-(propan-2-yloxy)phenyl]-octahydropyrrolo[3,4-b]pyrrol-5-yl]propyl}sulfanyl)-4-methyl-4H-1,2,4-triazol-3-yl]pyrazine dihydrochloride] | 7.23
Cc1ncoc1-c1nnc(SCCCN2C[C@@H]3CCN(c4ccc(C(F)(F)F)cc4)[C@@H]3C2)n1C.Cl.Cl [Example 5, 3-({3-[(3aS,6aS or 3aR,6aR)-1-[4-(trifluoromethyl)phenyl]-octahydropyrrolo[2,3-c]pyrrol-5-yl]propyl}sulfanyl)-4-methyl-5-(4-methyl-1,3-oxazol-5-yl)-4H-1,2,4-triazole dihydrochloride] | 8.65
Cn1c(SCCCN2CC3CCN(c4ccc(C(F)(F)F)cc4)C3C2)nnc1-c1ccncc1 (centres unmarked) [Example 153, 4-{4-methyl-5-[(3-{1-[4-(trifluoromethyl)phenyl]-octahydropyrrolo[3,4-b]pyrrol-5-yl}propyl)sulfanyl]-4H-1,2,4-triazol-3-yl}pyridine] | 8.73
Cn1c(SCCCN2CC3CCN(c4c(F)cccc4F)C3C2)nnc1-c1cccnc1 (centres unmarked) [Example 146, 3-[5-({3-[1-(2,6-difluorophenyl)-octahydropyrrolo[3,4-b]pyrrol-5-yl]propyl}sulfanyl)-4-methyl-4H-1,2,4-triazol-3-yl]pyridine] | 8.12
Cn1c(SCCCN2CC3CCN(c4c(F)cccc4C(F)(F)F)C3C2)nnc1-c1cnccn1 (centres unmarked) [Example 131, 2-{5-[(3-{1-[2-fluoro-6-(trifluoromethyl)phenyl]-octahydropyrrolo[3,4-b]pyrrol-5-yl}propyl)sulfanyl]-4-methyl-4H-1,2,4-triazol-3-yl}pyrazine] | 8.36
Cl.Cl.Cn1c(SCCCN2CC3CCN(c4c(F)cc(F)cc4F)C3C2)nnc1-c1cnccn1 (centres unmarked) [Example 133, 2-[4-methyl-5-({3-[1-(2,4,6-trifluorophenyl)-octahydropyrrolo[2,3-c]pyrrol-5-yl]propyl}sulfanyl)-4H-1,2,4-triazol-3-yl]pyrazine dihydrochloride] | 8.97
Cn1c(SCCCN2CC3CCN(c4ccc(F)cc4)C3C2)nnc1-c1ccn(C)c(=O)c1 (centres unmarked) [Example 207, 4-[5-({3-[1-(4-fluorophenyl)-octahydropyrrolo[3,4-b]pyrrol-5-yl]propyl}sulfanyl)-4-methyl-4H-1,2,4-triazol-3-yl]-1-methyl-1,2-dihydropyridin-2-one] | 8.09
Cc1ncoc1-c1nnc(SCCCN2CC3CCN(c4c(F)cccc4F)C3C2)n1C (centres unmarked) [Example 27, 3-({3-[1-(2,6-difluorophenyl)-octahydropyrrolo[3,4-b]pyrrol-5-yl]propyl}sulfanyl)-4-methyl-5-(4-methyl-1,3-oxazol-5-yl)-4H-1,2,4-triazole] | 8.58
Cn1c(SCCCN2CC3CCN(c4ccc(C(F)(F)F)cc4)C3C2)nnc1C1CCCCC1 (centres unmarked) [Example 56, 3-cyclohexyl-4-methyl-5-[(3-{1-[4-(trifluoromethyl)phenyl]-octahydropyrrolo[3,4-b]pyrrol-5-yl}propyl)sulfanyl]-4H-1,2,4-triazol] | 9.48
Cn1c(SCCCN2CC3CCN(c4c(F)cccc4F)C3C2)nnc1-c1ccc(C(N)=O)nc1 (centres unmarked) [Example 201, 5-[5-({3-[1-(2,6-difluorophenyl)-octahydropyrrolo[3,4-b]pyrrol-5-yl]propyl}sulfanyl)-4-methyl-4H-1,2,4-triazol-3-yl]pyridine-2-carboxamide] | 8.85
CC(C)Oc1ccccc1N1CCC2CN(CCCSc3nnc(-c4cnccn4)n3C)CC21 (centres unmarked) [Example 115, 2-{4-methyl-5-[(3-{1-[2-(propan-2-yloxy)phenyl]-octahydropyrrolo[3,4-b]pyrrol-5-yl}propyl)sulfanyl]-4H-1,2,4-triazol-3-yl}pyrazine] | 7.96
Cc1ncccc1-c1nnc(SCCCN2CC3CCN(c4c(F)cccc4F)C3C2)n1C (centres unmarked) [Example 190, 3-[5-({3-[1-(2,6-difluorophenyl)-octahydropyrrolo[3,4-b]pyrrol-5-yl]propyl}sulfanyl)-4-methyl-4H-1,2,4-triazol-3-yl]-2-methylpyridine] | 7.73
Cc1ncoc1-c1nnc(SCCCN2CC3CCN(c4cc(Cl)cc(Cl)c4)C3C2)n1C (centres unmarked) [Example 28, 3-({3-[1-(3,5-dichlorophenyl)-octahydropyrrolo[3,4-b]pyrrol-5-yl]propyl}sulfanyl)-4-methyl-5-(4-methyl-1,3-oxazol-5-yl)-4H-1,2,4-triazole] | 9.38
Cn1nccc1-c1nnc(SCCCN2CC3CCN(c4ccccc4C(F)(F)F)C3C2)n1C (centres unmarked) [Example 185, 4-methyl-3-(1-methyl-1H-pyrazol-5-yl)-5-[(3-{1-[2-(trifluoromethyl)phenyl]-octahydropyrrolo[3,4-b]pyrrol-5-yl}propyl)sulfanyl]-4H-1,2,4-triazole] | 8.45
Cn1c(SCCCN2C[C@@H]3CCN(c4ccc(C(F)(F)F)cc4)[C@@H]3C2)nnc1-c1cc[nH]c(=O)c1 [Example 167, 4-[5-({3-[(3aR,6aR or 3aS,6aS)-1-[4-(trifluoromethyl)phenyl]-octahydropyrrolo[2,3-c]pyrrol-5-yl]propyl}sulfanyl)-4-methyl-4H-1,2,4-triazol-3-yl]-1,2-dihydropyridin-2-one] | 8.07
Cc1ncoc1-c1nnc(SCCCN2CC3CCN(c4ccc(Cl)cc4Cl)C3C2)n1C (centres unmarked) [Example 29, 3-({3-[1-(2,4-dichlorophenyl)-octahydropyrrolo[3,4-b]pyrrol-5-yl]propyl}sulfanyl)-4-methyl-5-(4-methyl-1,3-oxazol-5-yl)-4H-1,2,4-triazole] | 8.28
Cl.Cl.Cl.Cn1c(SCCCN2C[C@@H]3CCN(c4ccccc4C(F)(F)F)[C@@H]3C2)nnc1-c1ccncc1 [Example 158, 4-[5-({3-[(3aS,6aS or 3aR,6aR)-1-[2-(trifluoromethyl)phenyl]-octahydropyrrolo[3,4-b]pyrrol-5-yl]propyl}sulfanyl)-4-methyl-4H-1,2,4-triazol-3-yl]pyridine trihydrochloride] | 8.75
Cn1c(SCCCN2CC3CCN(c4ccccc4)C3C2)nnc1C1CCOCC1 (centres unmarked) [Example 36] | 7.94
